The values below come from PubChem BioAssay AID1240 (Sanford-Burnham Center for Chemical Genomics, 2008).

Structures are written as SMILES. In all, about 50,000 compounds went through this assay and about 800 (1.6%) showed an effect of 50% or more. The list shows a part of the results.

This assay concerns the target Bcl-2-like protein 10 (Homo sapiens) (UniProt Q9HD36). As to the kind of experiment: Phenotype converters, Bcl-B/TR3 peptide binding displacement, primary biochemical FP (AID 1240).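 Note: 0% = Bcl-B with tracer peptide and DMSO and 100% = tracer peptide lacking Bcl-B.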 Particulars: GST-Bcl-B / FITC-TR3 peptide fluorescence polarization; stronger effect = higher value; compound at 3.75 mg/L.
Sequence of UniProt Q9HD36 (Q9HD36 whole entry, looked up): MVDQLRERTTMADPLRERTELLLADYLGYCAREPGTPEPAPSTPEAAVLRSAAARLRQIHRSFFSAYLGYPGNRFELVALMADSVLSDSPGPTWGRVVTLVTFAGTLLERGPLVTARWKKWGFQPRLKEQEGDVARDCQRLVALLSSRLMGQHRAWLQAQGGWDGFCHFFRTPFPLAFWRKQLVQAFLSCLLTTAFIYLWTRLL
Take `Cc1nc(-c2ccccc2)c2c(=O)cc[nH]c2n1`: the displacement came to 15.4%. With `Nc1nonc1/C(=N/O)N1CCN(c2ccc(C(F)(F)F)cc2[N+](=O)[O-])CC1` the figure was 1.6%. As for `O=C(C(c1ccccc1)c1ccccc1)N1CCN(C2CCN(Cc3ccccc3)CC2)CC1`, the displacement was -1%. Consider `CCOc1ccccc1NC(=O)Cc1ccc(Cl)cc1`, for which the displacement was -13.7%. Turning to `O=C(O)c1cccc(NC(=O)c2ccccc2NC(=O)c2cccs2)c1`, the displacement turned out to be 11.9%.

Regarding `COc1ccc(NC(=O)COc2ccc(C)c(C)c2)cc1`, the displacement was -9.7%. On to `O=C(/C=C/c1cc(Br)cs1)Nc1ccc(Cl)cc1Cl`, for which the displacement was -0.8%. Regarding `COc1ccc(OC)c(C2Nc3ccccc3NC3=C2C(=O)CC(c2ccc(Cl)cc2)C3)c1` (stereo not given), the displacement turned out to be 20.9%.

Turning to `CCOc1nc(Nc2ccc(Cl)cc2)nc(N2CCCCC2)n1`, the displacement is 8.9%. As for `Cc1ccc(Cl)cc1NC(=O)c1ccc(N(Cc2ccccc2)S(C)(=O)=O)cc1`, the displacement is -4.9%. Turning to `O=C1N/C(=N\N=C\c2cccc([N+](=O)[O-])c2)SC1Cc1cccc(Cl)c1Cl` (stereo not given), the displacement is 6%.

On to `CCOC(=O)c1ccccc1NC(=O)Cn1cnc2c1c(=O)n(C)c(=O)n2C`, for which the displacement was 9.5%. Turning to `Oc1ccc(/C=N/Nc2nc3ccccc3s2)c(O)c1`, the displacement is 11.1%. For `COc1ccc(Br)cc1/C=N/N=C1/NC(=O)CS1`, the displacement was -13.1%. For the molecule `COc1ccc(C(=O)Nc2ccc3nn(-c4ccc(F)cc4)nc3c2)cc1`, the displacement amounted to 6.5%. The result for `c1ccc(-c2nc(NC3CCCCC3)c3ccccc3n2)cc1` reads 3.3%; that for `O=C(c1cccc(Br)c1)N1CCN(c2ccc(Cl)cc2)CC1`, -3.7%. For the molecule `COc1ccc(/C=C(\C(C)=O)[N+](=O)[O-])cc1`, the displacement is -0.9%.

For the molecule `C=CCOc1ccc(C=C2C(=O)NC(=S)NC2=O)cc1OC`, the displacement turned out to be 7.8%. Turning to `Cc1cccc(-n2sc3c(c2=S)-c2ccccc2NC3(C)C)c1C`, the displacement was -6.7%.

Turning to `O=C(CC1Sc2ccc(C(F)(F)F)cc2NC1=O)Nc1ccc(N2CCCCC2)cc1` (stereo not given), the displacement is -11.2%.

Take `Clc1cccc(N=Cc2ccncc2)c1`: the displacement is 9.8%. With `CCOC(=O)c1c(N)sc(C(=O)Nc2cc(C)ccc2C)c1C` the figure was -0.9%; with `CC(C)Cn1c(C(C)O)nc2ccccc21` (stereo not given), 1.7%.

Take `COc1ccccc1NC1=C(Cl)C(=O)N(c2cccc(Cl)c2Cl)C1=O`: the displacement worked out at 2.5%. Turning to `N=C(SC1CC(=O)N(c2ccccc2Cl)C1=O)N1N=C(c2cccs2)CC1c1ccc(Br)cc1` (stereo not given), the displacement worked out at 1.4%. As to `CC(C)c1ccc(CNc2cc(N3CCN(C(=O)c4ccccc4F)CC3)ccc2[N+](=O)[O-])cc1`, the displacement was determined as 9.1%. With `COc1ccc(Cl)c(NC(=O)CSc2nc(C)cc(C)n2)c1` the figure was -8.5%; with `O=C(Nc1cccc2c1C(=O)c1ccccc1C2=O)c1ccc(S(=O)(=O)N2CCCCC2)cc1`, -5.9%. For `O=c1nc(/C=C/c2cc3c(cc2Br)OCO3)cc(C(F)(F)F)[nH]1`, the displacement was 115%.

In the case of `COc1ccc(OC)c(NC(=O)COc2ccc(F)cc2)c1`, the displacement turned out to be 5.8%.

Regarding `O=C(NC(=S)NCCCN1CCOCC1)c1ccc(Cl)cc1Cl`, the displacement is -6.5%. As to `COc1cc(-c2noc(-c3ccccc3)n2)cc(OC)c1OC`, the displacement was -0.6%. In the case of `Oc1[nH]c2ccccc2c1C=Nc1ccccc1`, the displacement is 1.6%. With `N#Cc1c(Nc2ccc(F)cc2)ccnc1N`, the displacement turned out to be 1.1%. Turning to `CC(NC(=O)C12CC3CC(CC(C3)C1)C2)C(=O)NC1CCCCC1` (stereo not given), the displacement was -6.6%. Take `CSCCOC(=O)C1=C(C)NC(=O)NC1c1ccc(O)c([N+](=O)[O-])c1` (stereo not given): the displacement is 16.4%.

Consider `CCCOc1ccc(C(=O)Nc2ccc(Br)cc2C(=O)O)cc1`, for which the displacement turned out to be 13.6%.

Regarding `C=CCN1C(=O)/C(=C\c2cc(Cl)c(O)c(Cl)c2)SC1=S`, the displacement was -38.1%.

In the case of `O=C(Nc1ccc(Cl)cc1)c1cccc2ccccc12`, the displacement came to 14.1%. For `CCN(CC)CCCCCCOc1ccccc1Br`, the displacement was determined as 6.9%. As for `Cc1ccc2ncnc(NCc3ccco3)c2c1`, the displacement came out at 2.5%.

For `O=[N+]([O-])c1ccc2c(c1)c(C1=NCCCCC1)c(O)n2-c1c(Cl)cccc1Cl`, the displacement was -7.6%. As for `NC(=O)c1ccccc1N=Cc1cc([N+](=O)[O-])ccc1Cl`, the displacement was -12.8%.

Take `CC(=O)Nc1ccc(S(=O)(=O)NC(CC(=O)O)c2ccccc2)cc1` (stereo not given): the displacement was 1.2%. `O=C(Nc1ccc(Br)cc1)c1ccc([N+](=O)[O-])cc1`: the displacement was 7%.

`C=CCNC(=O)c1cccc([N+](=O)[O-])c1`: the displacement was -4.6%. For `O=C(CCNc1ccc(-c2ccccc2)cc1)c1cccc([N+](=O)[O-])c1`, the displacement was -7.6%. As for `CC(=O)COc1ccc2c3c(c(=O)oc2c1C)CCCC3`, the displacement was -11.5%. As to `CC(C)(C)c1ccc(/C=C\C(=O)c2ccc3c(c2)OCO3)cc1`, the displacement is -17%. Take `CCOC(=O)C1=C(C)NC(=O)NC1c1ccc(OC)cc1OC` (stereo not given): the displacement stood at 16.6%. `Cc1ccc(-c2nnc(-c3ccc4c(c3)OCO4)o2)cc1`: the displacement was -2.6%. As for `COc1ccc([N+](=O)[O-])cc1N(CC(O)CN1CCCCC1)S(=O)(=O)c1ccccc1` (stereo not given), the displacement is -5.8%. For `CC1CCC2(CC1)C(C#N)=C(SCC(N)=O)NC(=O)C2C#N` (stereo not given), the displacement was -7.2%. With `COC(=O)C(Cc1ccccc1)NC(=O)c1ccc(C)cc1` (stereo not given) the figure was 7.4%; with `CCN(CC)S(=O)(=O)c1cc(C(=O)Nc2ccccc2OC)ccc1Cl`, -0.1%. Turning to `CC(NC(=O)c1ccccc1Cl)c1ccccc1` (stereo not given), the displacement was 15.9%. With `O=C(NNC(=O)c1cccc(Cl)c1)c1ccc(F)cc1` the figure was -4.5%; with `O=C(NCCOc1ccccc1)c1ccccc1F`, -20.5%; with `O=C(Nc1ccccc1)c1cc(S(=O)(=O)N2CCOCC2)ccc1Cl`, -8.2%. For the molecule `COc1ccc(NC(=O)c2ccc(NC(C)=O)cc2)c(OC)c1`, the displacement was -6.4%. Consider `CN(C)c1ccc(/C=N/NC(=O)c2ccco2)o1`, for which the displacement was determined as 3%. For `O=C(COc1ccc(Cl)cc1)N=Nc1c(O)n(CN2CCCC2)c2ccccc12`, the displacement turned out to be 0.2%. The result for `O=C(O)CCCCCN1C(=O)C(=O)/C(=C(\O)c2ccc(Br)cc2)C1c1ccc(F)cc1` (stereo not given) reads 6.3%. With `COC(=O)C1CCC(c2ccccc2)CC1` (stereo not given), the displacement is -10.4%. The result for `O=C1CC(C23CC4CC(CC(C4)C2)C3)=NN1c1ccccc1` reads -5.8%. On to `O=C(COc1ccc(Cl)cc1Br)Nc1ccc(Nc2ccccc2)cc1`, for which the displacement was -5.3%. For the molecule `O=C(Nc1ccc(F)cc1)c1cc(-c2cccs2)nc2ccccc12`, the displacement was -6.4%. Consider `CN1C(=O)C(O)(CC(=O)c2ccc(Br)cc2)c2ccccc21` (stereo not given), for which the displacement was -5.9%. The result for `CC(NC(=O)C(c1ccccc1)c1ccccc1)C(=O)NCCN(C)C` (stereo not given) reads -5.2%.

Consider `O=C(CN1C(=O)/C(=C/c2cccc(Br)c2)SC1=S)Nc1cccc(C(=O)O)c1`, for which the displacement is 8.7%.

`O=C(NCCN1CCOCC1)c1cc(-c2cccs2)nc2ccccc12`: the displacement worked out at 4.5%. For the molecule `COc1cc(/C=N/Nc2nc(N3CCCCC3)nc(N3CCCCC3)n2)cc(OC)c1`, the displacement came out at 1.2%.

Turning to `O=C(Nc1cccnc1)c1cc(S(=O)(=O)N2CCOCC2)ccc1Cl`, the displacement is -0.5%. As to `O=C(Cc1cccs1)Nc1ccc(N2CCOCC2)cc1`, the displacement was determined as 15.1%. As for `O=C1CC2c3ccccc3C1C1C(=O)N(c3ccc(Br)cc3)C(=O)C21` (stereo not given), the displacement was -1.8%. In the case of `COc1ccc(C(=O)Nc2c(C)ccc3nsnc23)cc1[N+](=O)[O-]`, the displacement stood at 10.5%.

On to `NC(=O)Cn1c(-c2nonc2N)nc2ccccc21`, for which the displacement amounted to 48.5%.

With `O=C1S/C(=C\c2cccs2)C(=O)N1Cc1ccccc1`, the displacement was -11%.

Consider `Cc1ccc(S(=O)(=O)NC(=O)Nc2ccccc2C(F)(F)F)cc1`, for which the displacement is 11.4%. As to `COC(=O)c1ccc(C(=O)OC)c(NC(=O)CCc2ccc(OC)cc2)c1`, the displacement is 4.7%.

In the case of `S=c1oc(-c2ccncc2)nn1CN1CCOCC1`, the displacement is -3.3%. On to `CCCSc1nsc(SCCC)c1C#N`, for which the displacement was 2.5%. Turning to `O=C(Nc1ccc(NC(=O)c2cc3ccccc3o2)cc1)c1cccc(Cl)c1`, the displacement is -3.4%. For `Fc1ccc(NC(=S)NCC2CCCO2)cc1` (stereo not given), the displacement turned out to be 6.2%. `O=[N+]([O-])c1cccc(CN2CCN(Cc3c[nH]c4ccccc34)CC2)c1`: the displacement was -12.8%. Turning to `COc1ccc(C(=O)O/N=C(\N)c2ccccc2)c(OC)c1`, the displacement was -6.1%. Consider `Cc1ccc(N=C2SC(C(=O)O)CC(=O)N2C)cc1Cl` (stereo not given), for which the displacement is -7.9%. Consider `O=C(Nc1ccccc1)C(=O)Nc1ccc(F)cc1`, for which the displacement is 10.3%. On to `CC(=O)c1cccc(NC(=O)c2cc(I)ccc2Cl)c1`, for which the displacement came to 3%. Regarding `C#CCOc1nc(Nc2ccc([N+](=O)[O-])cc2)nc(OCC#C)n1`, the displacement is -4.5%.

As for `CC1(C)CC(=O)c2sc(NC(=O)CSC3=NCCS3)nc2C1`, the displacement came to 1.8%.

With `CN(C)c1ccc(NC(=O)Cc2ccccc2[N+](=O)[O-])cc1`, the displacement is 5.8%. In the case of `CCN(CC)c1ccc(NC(=O)COc2ccc(C)cc2)cc1`, the displacement was 3.2%.

Take `COc1cc(C2NC(=S)NC(C)=C2C(=O)Nc2ccc(Br)cc2)cc(OC)c1OC` (stereo not given): the displacement turned out to be 1.4%. Take `COCCNC(=O)C(=O)Nc1ccc(OC)c(Cl)c1`: the displacement is -12.4%. Regarding `N/C(=N\N=C\c1ccc(O)cc1)c1nonc1N`, the displacement turned out to be 10.5%. For `Cc1ccc(-c2ccc(OCC(=O)Nc3ccccc3C(F)(F)F)cc2)cc1`, the displacement is -7%.

As for `Cn1c(O)c(/C=N/c2ncc(C(F)(F)F)cc2Cl)n(C)c1=S`, the displacement came out at 0.4%.

In the case of `CCC(C)c1ccc(NC(=O)c2cc(Br)ccc2OC)c(O)c1` (stereo not given), the displacement was 5.9%. Regarding `Cc1nnc(SCc2ccc(C(=O)O)cc2)s1`, the displacement was -0.3%.

Turning to `CCOC(=O)c1c(N)sc2c1CCN(C(=O)OCC)C2`, the displacement turned out to be 0.7%.

On to `Cc1ccc(C(=O)c2cccc(NC(=O)CC(C)C)c2)cc1C`, for which the displacement stood at 12.1%. With `COc1cccc(N2C(=O)/C(=C/c3cc(OC)c(OC)c(OC)c3)SC2=S)c1`, the displacement amounted to 41.6%. Turning to `COC(=O)NC(NC(=O)OC)c1ccc(Br)cc1`, the displacement worked out at 4.2%. For the molecule `O=C(NCc1cccs1)c1cc2nc(-c3ccc([N+](=O)[O-])cc3)cc(C(F)(F)F)n2n1`, the displacement amounted to 3.7%. On to `O=C(CSc1nc2ccccc2s1)NCC(=O)c1ccccc1`, for which the displacement was -1.9%. As to `Cc1c(Cl)cccc1-c1ccc(C(=O)O)o1`, the displacement is -0.1%. With `Cc1ccc(S(N)(=O)=O)cc1NC(=O)COc1ccccc1`, the displacement came to 1.8%. Turning to `Cc1cc2nc(-c3ccc(NC(=O)c4ccco4)cc3O)oc2cc1C`, the displacement stood at 0.3%. Regarding `O=C(Cc1ccc(Br)cc1)NCC1CCCO1` (stereo not given), the displacement was found to be 10.2%. With `COc1cc(C(=O)Nc2cccc(-c3cc4ccccc4oc3=O)c2)cc(OC)c1OC`, the displacement was found to be 3.9%. `COc1ccc(NC(=O)c2cccc(F)c2)cc1`: the displacement is -4.5%. On to `Cc1cc(C)c2nc3s/c(=C/c4ccc5c(c4)n(C)c(=O)n5C)c(=O)n3c2c1`, for which the displacement is -2.5%.

With `COc1ccc2nc(NC3=NC(c4ccccc4)CC(=O)N3)nc(C)c2c1` (stereo not given), the displacement turned out to be 0.3%.
